{"source": "the supplement of paper PMC3334620", "note": "In all, about 33,000 sequences were measured (“E-score (-0.5 to 0.5)”: median about -0.054, highest 2% from about 0.39 on). The list shows a part of the results."}
{"target": "Ylr278c (UniProt Q05854)", "assay": "PBM E-score (8-mer binding enrichment) (E-score (-0.5 to 0.5)); higher = stronger / more preferred TF binding; most listed sequences are background and not binding sites", "details": "protein concentration: 200 nM; construct: GST-DNA-binding domain", "how_it_was_run": "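The E-score, a modified Wilcoxon-Mann-Whitney statistic, was computed by the Universal PBM Analysis Suite for every ungapped eight-base word pooled with its reverse complement. Scans behind it were normalised with masliner after bound GST-tagged yeast transcription factors were detected with fluorescent anti-GST. The proteins, at about 100-200 nM, had been applied to universal all-10-mer Agilent arrays made double-stranded by primer extension.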"}
{"sequence": "TCAAGCGA", "PBM E-score": -0.0408}
{"sequence": "CCGGCGCA", "PBM E-score": 0.365}
{"sequence": "CAAGACAC", "PBM E-score": -0.00738}
{"sequence": "CGTACTCA", "PBM E-score": -0.0734}
{"sequence": "CAAAATTA", "PBM E-score": 0.0959}
{"sequence": "CCCCAAGG", "PBM E-score": -0.161}
{"sequence": "CTGCTTCA", "PBM E-score": -0.303}
{"sequence": "CCAACTGA", "PBM E-score": -0.328}
{"sequence": "AAACATGT", "PBM E-score": 0.0236}
{"sequence": "CGTCATAA", "PBM E-score": -0.0307}
{"sequence": "AAATCCAC", "PBM E-score": -0.124}
{"sequence": "GTTGCACA", "PBM E-score": -0.263}
{"sequence": "ATTCACAG", "PBM E-score": -0.265}
{"sequence": "ATGAGAGG", "PBM E-score": -0.0723}
{"sequence": "AGCCCGTA", "PBM E-score": -0.0821}
{"sequence": "ACGAAGAA", "PBM E-score": 0.0444}
{"sequence": "AGAGCTTG", "PBM E-score": -0.259}
{"sequence": "GTACGATA", "PBM E-score": -0.34}
{"sequence": "AACGTTTA", "PBM E-score": -0.141}
{"sequence": "GCCACTCC", "PBM E-score": 0.216}
{"sequence": "ACGGAATA", "PBM E-score": 0.357}
{"sequence": "ACGCCGGA", "PBM E-score": 0.432}
{"sequence": "CCCGTCGC", "PBM E-score": 0.162}
{"sequence": "AAACACCC", "PBM E-score": 0.0627}
{"sequence": "AGACTTTG", "PBM E-score": -0.283}
{"sequence": "AGGGGGGG", "PBM E-score": -0.452}
{"sequence": "ACTGCTAG", "PBM E-score": -0.314}
{"sequence": "AATTTTGA", "PBM E-score": 0.0064}
{"sequence": "GATCAGTA", "PBM E-score": -0.00685}
{"sequence": "CCAAGGAA", "PBM E-score": -0.0674}
{"sequence": "CCCGTCGA", "PBM E-score": 0.0362}
{"sequence": "GATAAAAA", "PBM E-score": 0.0302}
{"sequence": "AAAGTGTC", "PBM E-score": 0.0897}
{"sequence": "ACTATGGA", "PBM E-score": -0.127}
{"sequence": "ATATACTG", "PBM E-score": 0.0334}
{"sequence": "ATTTTTTC", "PBM E-score": 0.155}
{"sequence": "AGGCAAGC", "PBM E-score": -0.0705}
{"sequence": "CCAAGTAG", "PBM E-score": -0.329}
{"sequence": "CCTGGTCG", "PBM E-score": 0.111}
{"sequence": "CGAGATTC", "PBM E-score": 0.0465}
{"sequence": "CATGATAC", "PBM E-score": -0.0486}
{"sequence": "CTGGCTGC", "PBM E-score": -0.107}
{"sequence": "CGTCCCTA", "PBM E-score": -0.216}
{"sequence": "CGAATGAA", "PBM E-score": -0.0184}
{"sequence": "CTTTTGCC", "PBM E-score": 0.093}
{"sequence": "GGACAGCA", "PBM E-score": -0.0659}
{"sequence": "GAGACCCC", "PBM E-score": 0.0577}
{"sequence": "ATTTCCTG", "PBM E-score": 0.0615}
{"sequence": "GCAGAAAC", "PBM E-score": -0.136}
{"sequence": "AGATCGCG", "PBM E-score": 0.157}
{"sequence": "AAGTTACG", "PBM E-score": -0.0404}
{"sequence": "GACACGCA", "PBM E-score": 0.0396}
{"sequence": "ACTAAAAG", "PBM E-score": 0.121}
{"sequence": "GCTAGATA", "PBM E-score": -0.085}
{"sequence": "TATAGTCA", "PBM E-score": -0.256}
{"sequence": "GTATGGTA", "PBM E-score": -0.228}
{"sequence": "CCAGACTC", "PBM E-score": -0.0856}
{"sequence": "AAGCTGAG", "PBM E-score": -0.143}
{"sequence": "CTAAGAGA", "PBM E-score": -0.253}
{"sequence": "CGAGAACC", "PBM E-score": -0.0335}
{"sequence": "CCCCTAGG", "PBM E-score": -0.173}
{"sequence": "GAGAGCAC", "PBM E-score": -0.146}
{"sequence": "GACAGTAC", "PBM E-score": 0.0964}
{"sequence": "GAATCTAC", "PBM E-score": -0.178}
{"sequence": "CTTAGTTC", "PBM E-score": 0.00353}
{"sequence": "ACCGTTCT", "PBM E-score": -0.0784}
{"sequence": "AAGACGGC", "PBM E-score": -0.016}
{"sequence": "GAGTGCAA", "PBM E-score": 0.0084}
{"sequence": "TCAAAGGA", "PBM E-score": -0.286}
{"sequence": "CGCAATGC", "PBM E-score": -0.0156}
{"sequence": "ACCACAGT", "PBM E-score": -0.146}
{"sequence": "ATGTTATG", "PBM E-score": -0.152}
{"sequence": "GTAGATAC", "PBM E-score": -0.233}
{"sequence": "CACCACTA", "PBM E-score": -0.012}
{"sequence": "CAGGACCC", "PBM E-score": 0.00694}
{"sequence": "CGCAGTGA", "PBM E-score": -0.0535}
{"sequence": "ATTGTAAC", "PBM E-score": -0.107}
{"sequence": "CCAGGACG", "PBM E-score": -0.157}
{"sequence": "GCAGGTCC", "PBM E-score": 0.0435}
{"sequence": "CCACGAAC", "PBM E-score": -0.0073}
{"sequence": "ACATGACG", "PBM E-score": -0.0913}
{"sequence": "CAGGGTAG", "PBM E-score": -0.0792}
{"sequence": "AGTCTACG", "PBM E-score": -0.143}
{"sequence": "AGCAACAC", "PBM E-score": -0.082}
{"sequence": "GGTCCACC", "PBM E-score": -0.0108}
{"sequence": "AGCTATCA", "PBM E-score": -0.107}
{"sequence": "GTCCAGAC", "PBM E-score": -0.317}
{"sequence": "GAAAGAAA", "PBM E-score": 0.0399}
{"sequence": "GCTACTGA", "PBM E-score": -0.0378}
{"sequence": "CAGTGACC", "PBM E-score": -0.0854}
{"sequence": "CCTGCAAA", "PBM E-score": -0.137}
{"sequence": "AACGGTAA", "PBM E-score": 0.0061}
{"sequence": "ACTCCCGA", "PBM E-score": 0.217}
{"sequence": "GTAGGGTA", "PBM E-score": -0.0476}
{"sequence": "GTAAGCAC", "PBM E-score": -0.193}
{"sequence": "TACAAGAA", "PBM E-score": 0.0729}
{"sequence": "CTAGTCAC", "PBM E-score": -0.113}
{"sequence": "CCGGGCTA", "PBM E-score": 0.335}
{"sequence": "CACAGGTG", "PBM E-score": -0.132}
{"sequence": "CTGCCCAA", "PBM E-score": -0.161}
{"sequence": "GTTGACAA", "PBM E-score": 0.0679}
{"sequence": "ATACGTGC", "PBM E-score": -0.0115}
{"sequence": "AACTACCC", "PBM E-score": -0.143}
{"sequence": "AAGGTAGA", "PBM E-score": -0.13}
{"sequence": "AGATTTAA", "PBM E-score": 0.0218}
{"sequence": "ACACGCGC", "PBM E-score": 0.138}
{"sequence": "CTAAGGCA", "PBM E-score": -0.0034}
{"sequence": "AATCGTAG", "PBM E-score": -0.197}
{"sequence": "CGTCCCAC", "PBM E-score": 0.0936}
{"sequence": "GAGTTGCA", "PBM E-score": 0.00691}
{"sequence": "CTCGAATA", "PBM E-score": -0.144}
{"sequence": "CCGCACAA", "PBM E-score": 0.127}
{"sequence": "ATGCACCG", "PBM E-score": 0.178}
{"sequence": "AAAGAATT", "PBM E-score": -0.0164}
{"sequence": "CAAAGAGG", "PBM E-score": -0.201}
{"sequence": "GATTCATA", "PBM E-score": -0.0792}
{"sequence": "AATCGACT", "PBM E-score": -0.262}
{"sequence": "CTAGGAGC", "PBM E-score": 0.0194}
{"sequence": "CAATAGCC", "PBM E-score": -0.203}
{"sequence": "CCTCGCTC", "PBM E-score": -0.0394}
{"sequence": "TGGTTCAA", "PBM E-score": -0.118}
{"sequence": "ACGTGACT", "PBM E-score": -0.251}
{"sequence": "CCTAGCAA", "PBM E-score": -0.101}
{"sequence": "GACACGAC", "PBM E-score": -0.157}
{"sequence": "CGACCGCA", "PBM E-score": 0.183}
{"sequence": "AATGACTA", "PBM E-score": -0.169}
{"sequence": "AAGATGAT", "PBM E-score": -0.185}
{"sequence": "ATGTGGGG", "PBM E-score": -0.113}
{"sequence": "AGCTGTAG", "PBM E-score": -0.127}
{"sequence": "GCCCCCAA", "PBM E-score": -0.387}
{"sequence": "ACATTGGT", "PBM E-score": -0.1}
{"sequence": "GGTAGAAC", "PBM E-score": -0.164}
{"sequence": "ACTATAAG", "PBM E-score": -0.183}
{"sequence": "GAGGTGGC", "PBM E-score": -0.0782}
{"sequence": "TGGATTAA", "PBM E-score": -0.101}
{"sequence": "CTCCCGTA", "PBM E-score": 0.0526}
{"sequence": "AGCCGAAA", "PBM E-score": 0.169}
{"sequence": "CGCTGACA", "PBM E-score": -0.00094}
{"sequence": "GGCTTGCA", "PBM E-score": -0.118}
{"sequence": "GTGCTAAC", "PBM E-score": 0.134}
{"sequence": "AATTTACC", "PBM E-score": 0.064}
{"sequence": "ATCATATA", "PBM E-score": -0.142}
{"sequence": "CCACAATC", "PBM E-score": 0.0776}
{"sequence": "CTCCTATA", "PBM E-score": -0.237}
{"sequence": "CGTGCCTC", "PBM E-score": 0.00113}
{"sequence": "GCACTTAC", "PBM E-score": -0.00945}
{"sequence": "TAAGGACA", "PBM E-score": -0.156}
{"sequence": "GAACTGAA", "PBM E-score": -0.00699}
{"sequence": "AGTCCGGC", "PBM E-score": 0.44}
{"sequence": "ACATAGAG", "PBM E-score": -0.255}
{"sequence": "CAGGAAGA", "PBM E-score": -0.0182}
{"sequence": "ACGTCTGA", "PBM E-score": -0.195}
{"sequence": "ACAATGCT", "PBM E-score": -0.188}
{"sequence": "CTGACACC", "PBM E-score": -0.0644}
{"sequence": "ACGGACCA", "PBM E-score": 0.274}
{"sequence": "CTATAAGA", "PBM E-score": -0.286}
{"sequence": "GCCCTTAC", "PBM E-score": -0.0812}
{"sequence": "ACCACCAG", "PBM E-score": -0.17}
{"sequence": "CAGGGGCC", "PBM E-score": -0.0973}
{"sequence": "ACTCGAGA", "PBM E-score": -0.0777}
{"sequence": "GCGGGCAC", "PBM E-score": 0.267}
{"sequence": "CTCCTCAG", "PBM E-score": -0.166}
{"sequence": "GTCATCGA", "PBM E-score": -0.239}
{"sequence": "TCCGTCGA", "PBM E-score": 0.326}
{"sequence": "TCGAAACA", "PBM E-score": -0.109}
{"sequence": "CTTCCAGC", "PBM E-score": -0.09}
{"sequence": "TCCTGCGA", "PBM E-score": -0.0109}
{"sequence": "ATGCTTTA", "PBM E-score": -0.13}
{"sequence": "GGCGCGCA", "PBM E-score": 0.171}
{"sequence": "CGGAGGTA", "PBM E-score": 0.426}
{"sequence": "AGAGGTCG", "PBM E-score": 0.00929}
{"sequence": "AGCTTTTC", "PBM E-score": -0.0398}
